Assay results published in US20110105380A1 (University of Pennsylvania, published 2011).

Molecular target: SIRPα on human-derived THP-1 macrophages (human, UniProt P78324 31-504)
Test: cell-based or functional assay

UniProt P78324, sequence (P78324 31-504): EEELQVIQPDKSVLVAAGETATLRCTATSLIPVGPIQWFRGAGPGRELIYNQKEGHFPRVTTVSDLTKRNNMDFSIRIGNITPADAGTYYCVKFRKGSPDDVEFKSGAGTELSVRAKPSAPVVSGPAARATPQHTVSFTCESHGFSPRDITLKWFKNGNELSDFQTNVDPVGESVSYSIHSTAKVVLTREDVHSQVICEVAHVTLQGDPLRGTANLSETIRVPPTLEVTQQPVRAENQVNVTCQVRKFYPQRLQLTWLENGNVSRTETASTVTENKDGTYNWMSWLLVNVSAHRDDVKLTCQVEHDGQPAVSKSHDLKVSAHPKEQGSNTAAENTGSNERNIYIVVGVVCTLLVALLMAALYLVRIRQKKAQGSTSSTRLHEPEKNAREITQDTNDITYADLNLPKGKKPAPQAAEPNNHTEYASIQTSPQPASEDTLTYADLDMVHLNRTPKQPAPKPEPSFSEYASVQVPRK

localization of nonmuscle myosin IIA to the phagocytic synapse: 3.8 fold decrease | phosphotyrosine at the phagocytic synapse (immunostaining): 3.2 fold lower
B1: human CD47 on human red blood cells (ligand)
chain: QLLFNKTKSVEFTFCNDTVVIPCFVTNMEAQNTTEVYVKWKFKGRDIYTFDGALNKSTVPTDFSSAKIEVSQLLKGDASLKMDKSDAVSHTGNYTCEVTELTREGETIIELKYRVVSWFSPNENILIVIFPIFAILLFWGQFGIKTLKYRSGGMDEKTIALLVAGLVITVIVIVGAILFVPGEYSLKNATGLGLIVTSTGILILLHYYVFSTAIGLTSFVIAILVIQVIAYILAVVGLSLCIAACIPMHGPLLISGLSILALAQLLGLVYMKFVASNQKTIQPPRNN
